Laboratory results taken from the supplement of paper PMC12632987.
Over roughly 1,800 sequences, “median log2 fold change of GCK-ALFA target abundance (FLAG IP / Myc IP barcode read proportion)” has its median near 0.14; the lowest 2% begin near -0.84. Some of the results follow.

T1: TRAF2, Q12933
T1 chain: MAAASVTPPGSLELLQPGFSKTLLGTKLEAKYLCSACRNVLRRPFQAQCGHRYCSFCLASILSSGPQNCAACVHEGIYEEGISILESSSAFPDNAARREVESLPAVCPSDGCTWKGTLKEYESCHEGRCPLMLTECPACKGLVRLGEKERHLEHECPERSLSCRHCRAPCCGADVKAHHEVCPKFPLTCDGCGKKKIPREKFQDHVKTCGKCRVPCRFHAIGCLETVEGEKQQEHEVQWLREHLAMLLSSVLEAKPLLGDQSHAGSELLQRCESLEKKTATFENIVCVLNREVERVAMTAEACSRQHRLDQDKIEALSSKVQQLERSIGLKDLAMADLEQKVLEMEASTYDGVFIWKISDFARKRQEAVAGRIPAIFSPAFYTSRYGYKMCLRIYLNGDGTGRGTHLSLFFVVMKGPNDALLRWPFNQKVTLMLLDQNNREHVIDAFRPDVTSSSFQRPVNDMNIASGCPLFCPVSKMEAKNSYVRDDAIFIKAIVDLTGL

B1: traf2_out_18_117_1794 (protein)
chain: EEREKIIKELKEIAEKLGKAASELGNLVLEKYEELSPEEKSAAMDVLADLSEVRRKALELIIRIEKENIPIEEAKKELKKLKEEAEKALKAAKEKIKELK
B2: traf2_out_9_108_2575 (protein)
chain: MSEEEILEEKFEKMLELVEEMLEEWDFPEELREALKASIEQAKRLYEEGEKRTAIVLLAIDAARAAYELGEEAVEELLERLEEIDPIAASAARRMVELLK
B3: traf2_out_12_50_978 (protein)
chain: SMEELEREENERFRAEADRILDARDALWAETGGDVEAFAARLLEIAKRSLEDAKLALAVARAKHSELLQKGEDTSVVAAAIDEIEAIKEELEEKRDAEEE
B4: traf2_out_11_169_870 (protein)
chain: EEAEKNRKLNDFALELNDKAKKELLEFSLELAKELGLDVEEVKAIFEKNKNSSLSAVAAALIKYFESKGEKDAAKKVLEKYEELKEKINKEFSKKLKELE
B5: traf2_out_11_169_783 (protein)
chain: KEKEKNRKFNDFALKKEDEAKKKLKEFALKLAKEAGLDVEEVKKIFEDNKGKSLSAIAAALVAYFKAKGKEDEAAAVLKKYEELKDEINKAVTAKMKELE
B6: traf2_out_13_95_1039 (protein)
chain: SAELAKKINELADKAMDEILALLDAAAAAHADDPEAVAVLDEARRLAETRGASEAIHLLRQAAAARPEHAADFDALAAQIEAIRREAGREAAKLIKEAEE
B7: traf2_out_20_3_2091 (protein)
chain: SELEERLREALERALELIEEAIKLADPETAARLEALRARLEAARELPLDEQLVALSEVRRELLELAEEARREGREELARLLEEAAEEVNRAMNLAYKILE
B8: traf2_out_9_17_2627 (protein)
chain: AEAEERLRQAILDTARAYLDELVAEGIISEESRKKLLARFEELLARGLSPDEFTAAVIGTLASTLLVDEKLSVKEAQKHAGELYLRLRAARAAVEAELAA
B9: traf2_out_8_144_2541 (protein)
chain: MMSRREIANRLANILVELDELQKEADPETKEVLTEARRHVGQALNLVVFGGPREEILKHLEAAKEKLEEAQKLVEDNPELKKKVQEILKEVEEIIKDVKA
B10: traf2_out_15_180_1323 (protein)
chain: MTEEELEKRIELANEVSDKVQDKLAALLAAHPQLSPEERAALRALARAVTTLLFNGEEAEAEAAVARAEARLSPEAAAVARELAAFAKKVVEEAKKKLEE
B11: traf2_out_13_95_1145 (protein)
chain: SAEVAEKIMAIADRMLEEKDKILDDLEAQLKEKGLLTPEVAAALEAAKKSSISTAIHTLQELSKKYPEAKALLDEAIAKLEEIKRRAGREVAKILKEEEE
B12: traf2_out_19_16_1985 (protein)
chain: AKEEAEKLIKEMEKYLEEALKLAKETVAKLNELSREELSDNLVEISELVRKAQEALQKALELLKDDPERRAKLQAEYDAKLDEINRLMTIIVNKLEELLK
B13: traf2_out_3_89_2287 (protein)
chain: SEEREKKIEELRRIIDRYLKGFEKSARRVAKEMLEEGYSLDTLEGVLNASKTALVEEIRRLAKERGLSEEDIKELVEEATKRLDEIVDKILEEAKKARAE
B14: traf2_out_17_162_1595 (protein)
chain: SALEEKLKEIEEELKRLREELKKLEEQLKNIDKLTPEELRDLLVEASEIRRRALELLEEIEKLKDEIDEETYERLSSEAEEIAERAQRIANQLYKRLEEL
B15: traf2_out_9_17_2610 (protein)
chain: SEKEEELKKKLLEAIEEVLKELVEEGYITEEEAEEILEKVKELIEKGASPEEIIATFLGDIASILLTKSNLSLPEANKIVGKAYRKLRERLEEIKKELEE
B16: traf2_out_11_169_792 (protein)
chain: EEAEKNRQINDFALELNDKAKKELEKKALALAKEAGLDVEAVKAIFEKHKNASLSAVAAALIAYFKSQGKEDEAAAVLKAYEELKDKINKEATAKIKELE
B17: traf2_out_17_162_1495 (protein)
chain: AAAEEKLKELKKRLEELEKKLEELKKKLPDLPKMSKEELTDLLVEVSELKREALELAEELKKLAKETGSPEAEKLAKRAEELAEEAQRIANEIYKELEKK
B18: traf2_out_13_95_1183 (protein)
chain: SEEAKKKINEIADKMIDEVEAVLDALRAATADDPALAAEIDAIRETARTRGIHEAIGRLRALRAAHPEHAAALDAAIAEMEAIREKAGKEVAKILKEEEE
B19: traf2_out_20_38_2046 (protein)
chain: AEEEAERAENEAIRAAVNKADEEADKLIAEAKAKGISPEELLEMVTEKAVKELNAHGLEDNAERIKERAAHYREEGKYEQGAVEILMSAAAAIAWKKAQE
B20: traf2_out_18_117_1786 (protein)
chain: MKREEIIAELEEIAERLERAASELGNLMLEKWEELSPEEKSEAMDVLADLTEVRREALLLIQKIRAGKIPVEEAIKETEELRKRAEEALKRAEEMIKKIK
B21: traf2_out_18_167_1890 (protein)
chain: SEEIKKKIDYYSDKLVELSEIRRALLEIYELLLEDEEKAKKAIEEALKKFPNSEVIKEVKELSETKTPEELRAFLEEKAEELQKEMNKAYKEREEALKKL
B22: traf2_out_11_169_861 (protein)
chain: EEKEKNRKLIDFALEVEDEAKEKLKKFALELAKEKGLDVEEVKKIFEENKNSSLSAVASALIEYFKAKGEEDAAAKILEKYDELKEEINKKVSAKMKELE
B23: traf2_out_11_169_886 (protein)
chain: EEKEKNRKFNDFALEKNDEAKEKLLKFALELAKEKGLNVEEVKKIYEKNKNKSLSYLASELIKYFKEKGEEDAAEKILKKHEELQEEINKEVTAKMKELE
B24: traf2_out_18_167_1865 (protein)
chain: SEELKKELEEASDRLVELSEIRRTMRTALELLKESREKALAHVKEALKKHPDSEVLKAALEAFETLSDEEIRAFLEETAERLQKEMNKEYKKYEELRKKL
B25: traf2_out_20_3_2228 (protein)
chain: EELEKEAEKELEKLLKQLKAIEARADPETAARLKALIKKLKEAKELDPVDRLVVVSEVRQELLRLRQEAEAAGDAELAAALAKAAELAQRLAQLLYKIIE
B26: traf2_out_13_95_1123 (protein)
chain: SAEVAAKIMAIADKMEEEILKKLEELLKIAKEKGIAEKEIQAIIDKAKHGTVNQVIHDLKELSKKYPELKEEFDKTIKELEAIRSKAGKEVAKILKEEEE
B27: traf2_out_14_149_1251 (protein)
chain: SATEEKKQALKEAAKLMDEIIAILQKALEAGSTEVDKEKIRELLEKAREILKKQGFVLGHLLAMEEMLETTKNWTLEDIERFLAEAKRARESLEVLAEML
B28: traf2_out_3_89_2295 (protein)
chain: AAARAARLAEARANADRYVAGFEKSARWVAKQMLADGHSLETLEGVLNAARSALVAELRESLAERGLSPEDIAALVADFEARLNAIVAAVVAEAKARRAA
B29: traf2_out_11_155_718 (protein)
chain: SKKLELNQELVNEIMEIADEADRRLEELIEEVEKEDPEVARQLRALLEENKDKGITTRLLGAARLLREAGLEEYAERVLELLEETQKKMNELYKEYEKKL

Target: T1, TRAF2, Q12933
Test: median log2 fold change of GCK-ALFA target abundance (FLAG IP / Myc IP barcode read proportion) (log2 ratio); each designed protein is fused to an ALFA-tag nanobody in HEK293 cells to bring the named protein to FLAG-tagged glucokinase (GCK); Myc marks an untargeted standard; higher = target protein stabilised (more abundant)
Conditions: target protein: 3xFLAG-MCP-GCK-ALFA reporter; HEK293 landing pad (RPLP)
In short: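 An ALFA-nanobody-fused binder library was recombined into HEK293 landing-pad cells and induced with 2 μg mL^−1 doxycycline. Cells were transfected with a plasmid expressing a FLAG-tagged target and a Myc-tagged standard. After 48 h, lysates underwent anti-FLAG and anti-Myc immunoprecipitation, and circular RNA barcodes were reverse transcribed, amplified and sequenced. Target abundance is the per-binder median log2 ratio of FLAG to Myc barcode read proportions. Barcodes needed ≥10^−7 proportion in both replicates, binders ≥3 barcodes per replicate, and a 10^−6 pseudocount was added; the two replicates were pooled.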

Binder	median log2 fold change
B1	-0.2
B2	-0.386
B3	0.292
B4	0.133
B5	0.11
B6	-0.113
B7	-0.0622
B8	-0.033
B9	0.126
B10	0.381
B11	-0.43
B12	0.389
B13	-0.239
B14	-0.127
B15	-0.479
B16	0.154
B17	0.433
B18	0.208
B19	0.111
B20	-0.76
B21	0.406
B22	-0.428
B23	0.121
B24	0.19
B25	0.197
B26	-0.0767
B27	0.231
B28	-0.494
B29	-0.0489
